# Laboratory results as given in PubChem BioAssay AID686979 (National Center for Advancing Translational Sciences (NCATS), 2013).
# About 50,000 (12%) of roughly 420,000 compounds were called active. The inconclusive results got no clear call from the source; some entries with a clear call stand among them for comparison. The call rests on the fitted dose curve; in most records, active means well fitted inhibition curve with a large enough effect; inconclusive means small, poorly fitted or top-dose-only effect; inactive means flat fitted curve, though single readings scatter. No potency is given beside an inconclusive call; the fits are too rough.
# Assay: qHTS for Inhibitors of human tyrosyl-DNA phosphodiesterase 1 (TDP1): qHTS in cells in presence of CPT; further: nearly all actives have a fitted effect of over 55% in size
# Conditions: chicken DT40 Tdp1-/-;hTDP1 cells + 20 nM CPT, ATP luminescence, 48 h; activity change, negative = growth inhibition: at 46.2 µM (top of the series)
# In short: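 Chicken DT40 Tdp1-/- cells stably complemented with human TDP1 were seeded at 400 cells/well in medium containing 20 nM camptothecin, exposed to pin-transferred compounds, and grown at 37 °C for at least 48 hr. Viability was read as ATP luminescence.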
# On the % scale 0 is the no-effect control and ±100 the full control effect; potency means the concentration at half of the fitted maximal effect; tags describe the fitted curve by direction and shape.
Structure (SMILES),Potency,"activity change, negative = growth inhibition"
Cc1[nH]nc(N=CC2=C(O)CC(c3ccco3)CC2=O)c1-c1ccc(Cl)cc1 (stereo unspecified),"inconclusive [inhibitor, single point]",–
Cc1ccc(S(=O)(=O)N(C)CC(=O)NCCc2c[nH]c3ccccc23)cc1,–,inconclusive: -33.1% [inhibitor]
CCCCN(C=O)c1c(CC)nc2c(OCCC3CCCCC3)cccn12,active: 16.4 µM,–
O=C(/C=C/c1ccco1)NC(=S)Nc1ccccc1N1CCCC1,"inconclusive [inhibitor, single point]",–
COC(=O)c1ccc(Oc2nc(Nc3ccccc3)nc(N(C)C)n2)cc1,"inconclusive [inhibitor, single point]",–
CCOC(=O)[C@]12Cc3c(cc(OC)c(OC)c3OC)[C@H]1N(Cc1ccccc1)C(=O)c1cc(F)c(F)cc12,"inconclusive [inhibitor, single point]",–
CC(C)(C)OC(=O)N1CCCC(C(=O)Nc2ccc(C(=O)NCc3ccccc3)cc2)C1 (stereo unspecified),"inconclusive [inhibitor, single point]",–
COCCCNC(=O)CCNS(=O)(=O)c1ccc(C)cc1,"inconclusive [inhibitor, partial curve]",–
C=CCS/C(N)=N\N=C\c1cc(Br)cc([N+](=O)[O-])c1O,"inconclusive [inhibitor, single point]",–
O=C(CCC(=O)n1ncc2ccccc21)N1CCCCC1,–,inactive: -7.67%
Cc1cc(C)nc(SCC(=O)c2ccc(O)c(O)c2)n1,"inconclusive [inhibitor, single point]",–
Cc1ccc(-n2ncc3c(NCCCN(C)C)ncnc32)cc1Cl,"inconclusive [inhibitor, single point]",–
O=c1oc2ccccc2c2c1ccc1ccccc12,"inconclusive [inhibitor, single point]",–
COc1ccc(NC(=O)c2oc3ccccc3c2C)c(OC)c1,"inconclusive [inhibitor, single point]",–
O=C(CSc1ccc2nnc(CCNC(=O)c3ccccc3)n2n1)Nc1ccc(F)cc1F,–,inactive: 4.29%
O=C1c2ccccc2C(=O)N1CC1c2ccccc2CCN1S(=O)(=O)c1ccccc1 (stereo unspecified),"inconclusive [inhibitor, single point]",–
CCn1nnc(NC(=O)c2cccc(-c3cc4ccccc4oc3=O)c2)n1,–,inactive: -12.6%
CC(C)(C)c1cc2nc(NCCOc3ccccc3)ccn2n1,"inconclusive [inhibitor, single point]",–
COc1cc2c(cc1OC)CN(C1CCCN(Cc3cc(Cl)ccc3O)C1)CC2 (stereo unspecified),active: 16.4 µM,–
CC1CCc2c(C(=O)Nc3cccc(-c4nn[nH]n4)c3)csc2C1 (stereo unspecified),–,inactive: 2.73%
CCC1SC2=NCCN2C1(O)c1ccc(Cl)cc1 (stereo unspecified),"inconclusive [inhibitor, partial curve]",–
Cc1ccc(NC(=O)c2c(C)oc3ccc(O)c(CN4CCN(Cc5ccccc5)CC4)c23)cc1,active: 20.6 µM,–
COc1ccc(Br)c(Cn2c(C)c(C(=O)NCc3cccs3)sc2=O)c1,"inconclusive [inhibitor, single point]",–
COc1ccc(/C=C2\Sc3ccc(C(=O)N4CCN(Cc5ccccc5)CC4)cc3N(C)C2=O)cc1OC,active: 5.17 µM,–

Structure (SMILES),Potency,"activity change, negative = growth inhibition"
CCN(CC)S(=O)(=O)c1cccc(NC(=O)c2cc(=O)[nH]c3ccccc23)c1,"inconclusive [inhibitor, single point]",–
Cc1ccc(CN2CCC(CNC(=O)c3cnn(-c4ccc(C)cc4)c3C3CCN(C(=O)OC(C)(C)C)CC3)CC2)cc1,"inconclusive [inhibitor, partial curve]",–
CSC1=NCCN1C(=O)Cc1cccc2ccccc12,–,inactive: -4.3%
Cc1ccc(S(=O)(=O)N(CC(=O)Nc2cccnc2)c2cc(Cl)ccc2C)cc1,active: 16.4 µM,–
O=C(CSc1ccccc1)NN1C(=O)c2ccccc2C1=O,–,inactive: 6.18%
O=C(O)c1ccc2c(c1)C(=O)N(c1cccc3ccccc13)C2=O,–,inactive: -1.78%
CSc1ncccc1C(=O)N1CCN(S(=O)(=O)c2ccc3ccccc3c2)CC1,"inconclusive [inhibitor, partial curve, poor fit]",–
COc1ccc(NC(=O)c2oc3ccccc3c2NC(=O)C2CC2)cc1,"inconclusive [inhibitor, single point]",–
O=C(CC1SC(=Nc2ccccc2)N(CCc2ccccn2)C1=O)Nc1ccc(F)cc1 (stereo unspecified),"inconclusive [inhibitor, single point]",–
O=C(c1ccc(S(=O)(=O)Cc2cc(F)ccc2F)c([N+](=O)[O-])c1)N1CCOCC1,active: 6.51 µM,–
CC1(C(=O)OCC(=O)Nc2ccc(S(=O)(=O)N3CCOCC3)cc2)CC1(Cl)Cl (stereo unspecified),–,inactive: -14.8%
C=CCNC(=S)N1CCC(C(=O)c2ccc(Cl)cc2)CC1,active: 16.4 µM,–
Cc1ccc(NS(=O)(=O)c2ccc3c(c2)NC(=O)CCS3)c(Cl)c1,"inconclusive [inhibitor, partial curve, poor fit]",–
COc1cccc(-c2cnc(C(O)c3ccc(OC)c(F)c3)[nH]2)c1 (stereo unspecified),–,inconclusive: -33.9% [inhibitor]
CCOc1ccc(CNC(=O)C2CCCN(c3nn4cc(-c5ccc(OC)cc5)nc4s3)C2)cc1 (stereo unspecified),active: 16.4 µM,–
CCc1ccc(C(=O)NCc2cnn(C)c2)s1,"inconclusive [inhibitor, full curve, poor fit]",–
Cc1ccccc1OCCNC(=O)/C=C/c1ccc([N+](=O)[O-])cc1,–,inactive: 0.818%
COc1ccc(Cl)cc1NC(=O)COC(=O)/C=C/c1c(C)nn(C2CCS(=O)(=O)C2)c1Cl (stereo unspecified),–,inactive: -7.53%
Cc1cccc(NC(=O)CCCn2nc(C)c3c(C)n(-c4ccccc4)nc3c2=O)c1C,–,inactive: 0.901%
COc1ccc(NC(=O)CC2C(=O)N(c3ccccc3)C(=O)N2CCc2sccc2C)cc1 (stereo unspecified),"inconclusive [inhibitor, partial curve, poor fit]",–
CCc1ccccc1NC(=O)c1sc2nc(C)cc(C)c2c1N,active: 18.4 µM,–
ClCc1nc2ccccc2c2ccccc12,active: 4.11 µM,–
CCCC1NC(=O)c2cc3ccccc3cc2-n2c1nc1cc(F)ccc1c2=O (stereo unspecified),"inconclusive [inhibitor, single point]",–
COC(=O)[C@]12CCCCC=C1N(Cc1ccc(Cl)cc1Cl)C(=O)[C@H](CC(=O)NCc1cccs1)C2,"inconclusive [inhibitor, single point]",–

Structure (SMILES),Potency,"activity change, negative = growth inhibition"
Cc1cc(=O)n(CC(=O)Nc2ccc(Cl)c(Cl)c2)c(-n2nc(C)cc2C)n1,"inconclusive [inhibitor, single point]",–
O=C(N/N=C/c1cc(Cl)c(O)c(Cl)c1)c1cc2c(ccc3ccccc32)o1,"inconclusive [inhibitor, single point]",–
COc1cccc(-c2cc(C(=O)N3CCN(S(=O)(=O)c4ccccc4)CC3)[nH]n2)c1,"inconclusive [inhibitor, single point]",–
CC(C)C[C@H]1CN([C@@H](Cc2ccc(O)cc2)CN2CCC[C@@H]2CN2C(=O)C(=O)NC[C@@H]2Cc2ccccc2)C(=O)C(=O)N1CC1CCCCC1,"inconclusive [inhibitor, single point]",–
O=S(=O)(Nc1ccc(C(F)(F)F)cc1)c1cnc[nH]1,active: 18.4 µM,–
C=C1[C@@H](OC(C)=O)CC[C@]2(C)[C@@H]1C[C@@H]1C[C@H](OC(C)=O)C(C)=C([C@@H](OC(C)=O)[C@@H]2OC(C)=O)C1(C)C,"inconclusive [inhibitor, single point]",–
COc1ccc(CSc2ncnc3sccc23)cc1F,–,inactive: -17.7%
c1ccc(CSc2ncn[nH]2)nc1,–,inactive: 14.4%
COc1ccccc1C(CNC(=O)C1CCN(C(=O)Nc2ccccc2)CC1)N1CCCC1 (stereo unspecified),–,inactive: -2.04%
CN(C(=S)NC(=O)c1ccc(F)cc1)C1CCCCC1,"inconclusive [inhibitor, single point]",–
CCOc1cc(C(=O)NC2CCCCCCC2)cc(OCC)c1OCC,–,inactive: -15.2%
CC(C)CCn1c(=O)c2ccccc2n2c(CCl)nnc12,"inconclusive [inhibitor, single point]",–
Cn1cnnc1SC(C(=O)Nc1cc(Cl)cc(Cl)c1)c1ccccc1 (stereo unspecified),–,inactive: 1.64%
COc1ccccc1Nc1nnc(SCC(=O)Nc2nc(-c3ccc(F)cc3)cs2)s1,active: 14.6 µM,–
CCOCCCn1c(=N)c(C(=O)NCc2ccc3c(c2)OCO3)cc2c(=O)n3cccc(C)c3nc21,"inconclusive [inhibitor, single point]",–
O=C(Oc1ccc2c(c1)O/C(=C\c1ccncc1)C2=O)c1ccccc1,"inconclusive [inhibitor, partial curve, poor fit]",–
Cc1cccc(OCCn2c(=S)[nH]c3ccccc32)c1,active: 23.1 µM,–
CCOc1cccc2cc(-c3csc(NC(=O)CCC(=O)N4CCC(C)CC4)n3)c(=O)oc12,"inconclusive [inhibitor, single point]",–
Brc1ccsc1/C=N/Nc1ccccc1,–,inactive: -18.2%
COc1ccc(S(=O)(=O)N(CC(=O)Nc2ccc(S(=O)(=O)N3CCOCC3)cc2)c2ccccc2)cc1,–,inactive: -68.2%
Cc1ccc(-c2nnc(CCC(=O)N(C)Cc3nccs3)o2)s1,–,inactive: 3.58%
Oc1ccc(OCc2ccccc2)cc1,active: 4.04 µM,–
Cc1ccc(C(=O)CSc2nc3cc(C(=O)NC4CCCC4)ccc3c(=O)n2CC2CCCO2)c(C)c1 (stereo unspecified),active: 10.3 µM,–
